Assay results reported in paper PMC13083723 (Patterns, 2026).
The campaign covered roughly 5,400 compounds. About 190 (3.5%) showed an effect of 50% or more. Some of the results follow.

test system: Vero-E6; assay: primary screen, phospholipidosis by LipidTOX staining; higher = more effect of the substance; conditions: 10 µM
How it was run: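 Drug-induced phospholipidosis detected with HCS LipidTOX Red reagent in Vero-E6 cells. Compounds tested at 10 μM, with amiodarone (10 μM) as positive control and DMSO (0.1 v/v %) as vehicle.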

| Structure (SMILES) | result_ITMP [%] |
| --- | --- |
| O=C(OC1C[C@@H]2CC3C[C@H](C1)N2CC3=O)c1c[nH]c2ccccc12 (some centres unmarked) | -7.26 |
| NCCCC(=O)O | -6.43 |
| Cc1ccc(-c2nn(C(C)(C)C)c3ncnc(N)c23)cc1 | -0.98 |
| CCCCCCCCCCCCCCCCCCCCCCO | 6.73 |
| COc1ccc(O)cc1 | -0.7 |
| CC(C)C[C@@H](C(=O)N[C@H](C(=O)OC1CCCC1)c1ccccc1)[C@H](O)C(=O)NO | -4.02 |
| NC(=O)c1cccc(-c2cc(Nc3ccc(OC(F)(F)F)cc3)ncn2)c1 | -4.13 |
| Cc1cc(C)c(CNC(=O)c2cc(-c3ccc(CN4CCOCC4)cc3)cc3c2cnn3C2CCCC2)c(=O)[nH]1 | 17.1 |
| C=C[C@]1(C)C[C@@H](OC(=O)CS[C@@H]2C[C@H]3CC[C@@H](C2)N3C)[C@]2(C)[C@H](C)CC[C@]3(CCC(=O)[C@H]32)[C@@H](C)[C@@H]1O | 12.9 |
| CC/C(=C(\c1ccc(O)cc1)c1ccc(OCCN(C)C)cc1)c1ccccc1 | 20.4 |
| NC(N)=NC(=O)Cc1c(Cl)cccc1Cl | 3.49 |
| Nc1nc(-c2nn(Cc3ccccc3F)c3ncccc23)ncc1C1CC1 | 0.5 |
| N[C@@H](C(=O)N[C@@H]1C(=O)N2C(C(=O)O)=C(Cl)CC[C@H]12)c1ccccc1 | 0.05 |
| COc1ccccc1OC(=O)CNC(=O)Cc1ccc(C(=O)c2ccc(C)cc2)n1C | -14 |
| C#Cc1cccc(Nc2ncnc3cc(OCCOC)c(OCCOC)cc23)c1 | 16.4 |
| COc1ccc(Cn2ccc3ccc(C(=O)NO)cc32)cc1 | -1.84 |
| COC(=O)C1=CO[C@@H](O[C@@H]2O[C@H](CO)[C@@H](O)[C@H](O)[C@H]2O)[C@@H]2C(CO)=CC[C@H]12 | -3.32 |
| N#Cc1ccc(C2CCCc3cncn32)cc1 (centres unmarked) | 4.29 |
| OC(CN1CCNCC1)Cn1c2ccc(Br)cc2c2cc(Br)ccc21 (centres unmarked) | 123 |
| CC(CN(C)C)CN1c2ccccc2Sc2ccccc21 (centres unmarked) [R4A_0005516_001 / SPE_M58473998] | 17.1 |
| CC(C)Nc1cccnc1N1CCN(C(=O)c2cc3cc(NS(C)(=O)=O)ccc3[nH]2)CC1 | -1.3 |
| CCOCOC[C@H](C[C@H](C)C(=O)NO)NC(=O)c1ccc(Oc2ccccc2)cc1 | -0.6 |
| NS(=O)(=O)c1cc2c(cc1Cl)NC(C(Cl)Cl)NS2(=O)=O (centres unmarked) | -3.35 |

| Structure (SMILES) | result_ITMP [%] |
| --- | --- |
| COCC(O)Cn1ccnc1[N+](=O)[O-] (centres unmarked) | 4.58 |
| NC(=O)c1cnc(N[C@@H]2CCCC[C@@H]2N)nc1Nc1cccc(-n2nccn2)c1 | 18.8 |
| CCC1OC(=O)CC(O)C(C)C(OC2OC(C)CC(N(C)C)C2O)C(CC=O)CC(C)C(=O)/C=C/C2(C)OC2C1C (centres unmarked) | -0.55 |
| CC[C@@](C)(Nc1ccnc(-c2c[nH]c3ncccc23)n1)C(=O)NCC(F)(F)F | -0.82 |
| Cc1nnc(C(C)C)n1[C@@H]1C[C@H]2CC[C@@H](C1)N2CC[C@H](NC(=O)C1CCC(F)(F)CC1)c1ccccc1 | 0.66 |
| CC1(C)S[C@@H]2[C@H](NC(=O)C(C(=O)[O-])c3ccccc3)C(=O)N2[C@H]1C(=O)[O-] (some centres unmarked) | -1.48 |
| COc1cc(C(=S)N2CCOCC2)cc(OC)c1OC | -0.06 |
| Nc1ccccc1S(N)(=O)=O | -10.3 |
| O=C(N[C@H]1CCN(C(=O)c2cc(C(F)(F)F)cc(C(F)(F)F)c2)[C@H](Cc2ccc(Cl)cc2)C1)c1ccnc2ccccc12 | -1.02 |
| COc1ccccc1Oc1c(NS(=O)(=O)c2ccc(C(C)(C)C)cc2)nc(-c2ncccn2)nc1OCCO | -4.54 |
| C[N+](C)(C)CC#CCN1CCCC1=O | -1.83 |
| Cc1cc(O)cc2c1O[C@@](C)(CCC[C@@H](C)CCC[C@@H](C)CCCC(C)C)CC2 | -8.73 |
| C=CCN1CC[C@@]2(C)c3cc(O)ccc3C[C@H]1[C@H]2C | -0.02 |
| COc1cc2c(Oc3ccc(NC(=O)C4(C(=O)Nc5ccc(F)cc5)CC4)cc3F)ccnc2cc1OCCCN1CCOCC1 | 80.1 |
| Cc1sc(C)c(C(=O)NC2(c3ccc(C(=O)O)cc3)CC2)c1Cc1ccc(C(F)(F)F)cc1 | 0.39 |
| COc1cc(N2CCC(N(C)C)CC2)ccc1Nc1ncc(Cl)c(Nc2ccccc2P(C)(C)=O)n1 | 51.8 |
| Cc1c(OCc2cccc(-c3ccc(C(=O)O)cc3)c2)cc2c(c1C)C(=O)C(C1CCCC1)C2 (centres unmarked) | -2.12 |
| CCN(c1nc(N)c(C(=O)NC(=N)N)nc1Cl)C(C)C | -1.36 |
| CC(C)OC(=O)c1cc2c(OCC(O)CNC(C)(C)C)cccc2[nH]1 (centres unmarked) | 16.4 |
| O=S(=O)(Oc1ccc(Cl)cc1)c1ccc(Cl)cc1 | -7.57 |
| c1cc(Nc2cc(C3CC3)n[nH]2)nc(Nc2ccc3nc[nH]c3c2)n1 | -1.4 |
| CC(C)[N+](C)(CCOC(=O)C1c2ccccc2Oc2ccccc21)C(C)C | -3.69 |
| C[C@H](CSC(=O)c1ccccc1)C(=O)N1C[C@@H](Sc2ccccc2)C[C@H]1C(=O)[O-] | -1.35 |

| Structure (SMILES) | result_ITMP [%] |
| --- | --- |
| CNC(=O)COC(=O)NCCC1CCN(c2cccc(C)n2)CC1 | -9.4 |
| CC1(N)CCN(c2cnc(-c3cccc(Cl)c3Cl)c(N)n2)CC1 | 13.6 |
| CN1CCC[C@@H]1Cc1c[nH]c2ccc(CCS(=O)(=O)c3ccccc3)cc12 | 2.55 |
| Nc1ncnc2[nH]cnc12 | -2.75 |
| CCC(=O)OCC(=O)C1(OC(=O)CC)C(C)CC2C3CCC4=CC(=O)C=CC4(C)C3(Cl)C(O)CC21C (centres unmarked) | -1.07 |
| C[n+]1c2cc(N)ccc2cc2ccc(N)cc21 | 25 |
| CC(=O)[C@H]1CC[C@H]2[C@@H]3CCC4C[C@](C)(O)CC[C@]4(C)[C@H]3CC[C@]12C (some centres unmarked) | -9.8 |
| O=C(O)CCNC(=O)c1ccccc1 | -2.15 |
| O=C(Nc1ccccc1F)N[C@H]1N=C(c2ccccc2)c2ccccc2NC1=O | -0.83 |
| CO[C@H]1/C=C\C=C(/C)C(=O)NC2=CC(=O)C(NCCN(C)C)=C(C[C@@H](C)C[C@H](OC)[C@H](O)[C@@H](C)/C=C(\C)[C@@H]1OC(N)=O)C2=O | -4.72 |
| C=C1/C(=C\C=C2/CCC[C@]3(C)[C@@H]([C@H](C)CCCC(C)C)CC[C@@H]23)C[C@@H](O)C[C@@H]1O | -4.89 |
| CCN(CC)CCOC(=O)c1cc(Cl)c(N)cc1OC | -0.97 |
| CN1CCN(c2cc(-c3ccccc3)nc(N)n2)CC1 | 5.46 |
| Cc1ccc2c(c1)c1c3n2CCNC3CCC1 (centres unmarked) | 51.5 |
| CCN(CC)CCNC(=O)c1cc(Cl)c(N)cc1OC | -0.15 |
| COc1ccc(CNC(=O)/C=C/c2ccc3[nH]cc(CCN(C)C)c3c2)cc1 | 2.83 |
| NCCCNCCCCNCCCN | 0.55 |
| CN(C)C/C=C(/c1ccc(Br)cc1)c1cccnc1 | 15.4 |
| CCOc1ccc2ccccc2c1C(=O)N[C@@H]1C(=O)N2[C@@H]1SC(C)(C)[C@@H]2C(=O)O | -1.91 |
| C/C=C/C=C/C(=O)O | -3.82 |
| CCCC(=O)O[C@]1(C(=O)CCl)[C@@H](C)C[C@H]2[C@@H]3CCC4=CC(=O)C=C[C@]4(C)[C@@]3(F)C(=O)C[C@@]21C | -1.95 |
| CO[C@@]12[C@@H]3NC3CN1C1=C(C(=O)C(N)=C(C)C1=O)[C@@H]2COC(N)=O (some centres unmarked) | 0.39 |
| N#C/C(=C\c1cn(-c2ccccc2)c2ccccc12)C(=O)O | -1.05 |

| Structure (SMILES) | result_ITMP [%] |
| --- | --- |
| Cn1cnc2c1c(=O)[nH]c(=O)n2C | -4.01 |
| CC(C)NCC(O)COc1ccc(CC(N)=O)cc1 (centres unmarked) [R4A_0002533_001 / SPE_A20239487] | -2.01 |
| CC1=NN(c2ccccc2)C(=O)C1 | -6.74 |
| O=C(OCC(O)CO)c1ccccc1Nc1ccnc2c(C(F)(F)F)cccc12 (centres unmarked) | -5.11 |
| Cc1cccc(NC(=O)CN2CCC(c3ccccn3)CC2)c1 | -0.98 |
| Cc1ccc(S(N)(=O)=O)cc1 | 0.17 |
| O=C1c2ccccc2CCC1CNCCc1ccc(O)cc1 (centres unmarked) | 2.1 |
| O=C(O)c1ccc(O)c2ncccc12 | -2.1 |
| COc1cc2ncnc(Nc3ccc(O)c(Br)c3)c2cc1OC | 4.01 |
| CN1C(=O)N(c2ccc(C#N)c(C(F)(F)F)c2)C(=O)[C@]1(CO)c1ccccc1 | -2.15 |
| O=c1c(-c2ccccc2)c1-c1ccccc1 | -4.48 |
| COc1cc(-c2cc(-c3cccc(O)c3)cnc2N)cc(OC)c1OC | 0.12 |
| CCOC(=O)N1CSCC1C(=O)O (centres unmarked) | -3.59 |
| NC(=O)c1cc[n+](CC2=C(C(=O)[O-])N3C(=O)[C@@H](NC(=O)[C@@H](c4ccccc4)S(=O)(=O)[O-])[C@H]3SC2)cc1 | 4.59 |
| O=c1cccc2n1C[C@@H]1CNC[C@H]2C1 | 0.37 |
| Cc1ccc(C(C)C)c(O)c1 | -2.22 |
| CCCC(=O)Nc1cccc(NC(=O)c2ccccc2Br)c1 | -1.39 |
| CCCCN1CC(O)C(O)C(O)C1CO (centres unmarked) | -4.4 |
| CCCCC[C@H](O)/C=C/[C@@H]1[C@H]2C/C(=C/CCCC(=O)[O-])O[C@H]2C[C@H]1O | 0.37 |
| CO[C@H]1C[C@@H]2CC[C@@H](C)[C@@](O)(O2)C(=O)C(=O)N2CCCC[C@H]2C(=O)O[C@H]([C@H](C)C[C@@H]2CC[C@H](n3cnnn3)[C@H](OC)C2)CC(=O)[C@H](C)/C=C(\C)[C@@H](O)[C@@H](OC)C(=O)[C@H](C)C[C@H](C)/C=C/C=C/C=C/1C | -4.35 |
